Experimental data: the supplement of paper PMC7411054
Where a name gives a salt, the structure may show the parent alone. For some of these results: This list holds what a sample rich in hits left over. This is a selection; strong and weak results do not stand in their true shares.

Legend:
Assay in all cases: phenotypically active (imaging signature differs from DMSO and reproducible) at any of 0.3-9 uM (binary (1 = active, 0 = inactive)); higher = active
Conditions in all cases: treatment time: 24 h
HepG2-ACTB-RAB5A = test system: HepG2-ACTB-RAB5A
Method in brief: (§1)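 Four wells per concentration (0.3, 1, 3 or 9 µM) were treated for 24 h in each of fifteen gene-edited reporter lines from A549, HepG2 and WPMY1 cells, then imaged live. After normalising live-cell features to solvent control wells, deviation was defined as ≥3 of 4 wells lying past the 95th percentile of control Euclidean distances. Reproducibility was defined as a median replicate Pearson correlation above the 95th percentile of non-replicates. Both had to hold for phenotypic activity.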

HepG2-CANX-COX4 = test system: HepG2-CANX-COX4
Method in brief: as §1

HepG2-GM130-SQSTM1 = test system: HepG2-GM130-SQSTM1
Method in brief: as §1

HepG2-TP53BP1-CLTA = test system: HepG2-TP53BP1-CLTA
Method in brief: as §1

HepG2-TUBA1B-RELA = test system: HepG2-TUBA1B-RELA
Method in brief: as §1

WPMY1-ACTB-RAB5A = test system: WPMY1-ACTB-RAB5A
Method in brief: as §1

WPMY1-CANX-COX4 = test system: WPMY1-CANX-COX4
Method in brief: as §1

WPMY1-GM130-SQSTM1 = test system: WPMY1-GM130-SQSTM1
Method in brief: as §1

WPMY1-TP53BP1-CLTA = test system: WPMY1-TP53BP1-CLTA
Method in brief: as §1

WPMY1-TUBA1B-RELA = test system: WPMY1-TUBA1B-RELA
Method in brief: as §1

Row | SMILES | phenotypically active (HepG2-ACTB-RAB5A) | phenotypically active (HepG2-CANX-COX4) | phenotypically active (HepG2-GM130-SQSTM1) | phenotypically active (HepG2-TP53BP1-CLTA) | phenotypically active (HepG2-TUBA1B-RELA) | phenotypically active (WPMY1-ACTB-RAB5A) | phenotypically active (WPMY1-CANX-COX4) | phenotypically active (WPMY1-GM130-SQSTM1) | phenotypically active (WPMY1-TP53BP1-CLTA) | phenotypically active (WPMY1-TUBA1B-RELA)
1 | CN1[C@@H]2CC[C@H]1C[C@@H](OC(=O)C(O)c1ccccc1)C2 (stereo not given in full) [Homatropine HBr] | inactive: 0 | inactive: 0 | inactive: 0 | inactive: 0 | inactive: 0 | inactive: 0 | inactive: 0 | inactive: 0 | inactive: 0 | inactive: 0
2 | O=C1NC(=O)c2c1c(-c1ccccc1)cc1[nH]c3ccc(O)cc3c21 | active: 1 | active: 1 | active: 1 | active: 1 | active: 1 | active: 1 | active: 1 | active: 1 | active: 1 | active: 1
3 | COc1cc(N2CCN(C(C)=O)CC2)ccc1Nc1ncc(Cl)c(Nc2ccc(N3CCN(C(C)=O)CC3)cc2OC)n1 | active: 1 | active: 1 | active: 1 | active: 1 | active: 1 | inactive: 0 | active: 1 | active: 1 | active: 1 | inactive: 0
4 | COC(=O)[C@H](CCCNC(=N)N)NS(=O)(=O)c1ccc(C)cc1 [TAME hydrochloride] | inactive: 0 | inactive: 0 | inactive: 0 | inactive: 0 | inactive: 0 | inactive: 0 | inactive: 0 | inactive: 0 | inactive: 0 | inactive: 0
